Results taken from the supplement of paper PMC11741623.
The list shows a part of the results. Interaction screen of human proteins with wild-type SARS-CoV-2 proteins by split-DHFR complementation in yeast, 1 µg/mL methotrexate. Value = fitness of the pair (three or more lineages) minus that of the viral protein without a human partner, on a scale set by negative (0) and fused positive (1) controls, mean of up to three cultures; higher = more likely to interact. Active = false discovery rate below 0.05 (one-sided t-test) in at least one culture. Nearly all pairs are not hits, and differences among them are mostly noise (correlation between cultures about 0.3); most hits were seen in one culture only. Human sequences are the Swiss-Prot entries looked up by gene name; the clone may be another isoform. NSP2 values were corrected by the authors for a growth advantage. Listed are human proteins with a hit and a random twelfth of the others.

How the values were obtained:
Assay in all cases: yeast fitness gain over the viral ORF with no human partner (scaled fitness); higher = more likely to interact
SARS-CoV-2 E = biological target: SARS-CoV-2 E
Protocol: (§1)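 Split mouse DHFR complementation in pooled diploid yeast: human ORFeome clones carry one fragment and viral ORFs the other; barcoded lineages compete in 1 µg/mL methotrexate and fitness is read by barcode sequencing in up to three cultures.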

SARS-CoV-2 M = biological target: SARS-CoV-2 M
Protocol: as §1

SARS-CoV-2 N = biological target: SARS-CoV-2 N
Protocol: as §1

SARS-CoV-2 NSP1 = biological target: SARS-CoV-2 NSP1
Protocol: as §1

SARS-CoV-2 NSP10 = biological target: SARS-CoV-2 NSP10
Protocol: as §1

SARS-CoV-2 NSP12 = biological target: SARS-CoV-2 NSP12
Protocol: as §1

SARS-CoV-2 NSP13 = biological target: SARS-CoV-2 NSP13
Protocol: as §1

SARS-CoV-2 NSP15 = biological target: SARS-CoV-2 NSP15
Protocol: as §1

SARS-CoV-2 NSP16 = biological target: SARS-CoV-2 NSP16
Protocol: as §1

SARS-CoV-2 NSP2 = biological target: SARS-CoV-2 NSP2
Protocol: as §1

SARS-CoV-2 NSP4 = biological target: SARS-CoV-2 NSP4
Protocol: as §1

SARS-CoV-2 NSP5 = biological target: SARS-CoV-2 NSP5
Protocol: as §1

SARS-CoV-2 NSP6 = biological target: SARS-CoV-2 NSP6
Protocol: as §1

SARS-CoV-2 NSP7 = biological target: SARS-CoV-2 NSP7
Protocol: as §1

SARS-CoV-2 NSP8 = biological target: SARS-CoV-2 NSP8
Protocol: as §1

SARS-CoV-2 NSP9 = biological target: SARS-CoV-2 NSP9
Protocol: as §1

SARS-CoV-2 ORF10 = biological target: SARS-CoV-2 ORF10
Protocol: as §1

SARS-CoV-2 ORF3A = biological target: SARS-CoV-2 ORF3A
Protocol: as §1

SARS-CoV-2 ORF3B = biological target: SARS-CoV-2 ORF3B
Protocol: as §1

SARS-CoV-2 ORF6 = biological target: SARS-CoV-2 ORF6
Protocol: as §1

SARS-CoV-2 ORF7A = biological target: SARS-CoV-2 ORF7A
Protocol: as §1

SARS-CoV-2 ORF7B = biological target: SARS-CoV-2 ORF7B
Protocol: as §1

SARS-CoV-2 ORF8 = biological target: SARS-CoV-2 ORF8
Protocol: as §1

SARS-CoV-2 ORF9B = biological target: SARS-CoV-2 ORF9B
Protocol: as §1

[1] = biological target: SARS-CoV-2 ORF9Bwu (the 73-codon ORF)
Protocol: as §1

SARS-CoV-2 S = biological target: SARS-CoV-2 S
Protocol: as §1

SARS-CoV-2 NSP14 = biological target: SARS-CoV-2 NSP14
Protocol: as §1

Measured: yeast fitness gain

B1: NBPF3, Q9H094 (protein)
chain: MPLTPTVQGFQWTLRGPDVETSPFGAPRAASHGVGRHQELRDPTVPGPTSSATNVSMVVSAGPWSGEKAEMNILEINKKSRPQLAENKQQFRNLKQKCLVTQVAYFLANRQNNYDYEDCKDLIKSMLRDERLLTEEKLAEELGQAEELRQYKVLVHSQERELTQLREKLQEGRDASRSLNQHLQALLTPDEPDNSQGRDLREQLAEGCRLAQHLVQKLSPENDDDEDEDVKVEEAEKVQELYAPREVQKAEEKEVPEDSLEECAITCSNSHHPCESNQPYGNTRITFEEDQVDSTLIDSSSHDEWLDAVCIIPENESDHEQEEEKGPVSPRNLQESEEEEAPQESWDEGDWTLSIPPDMSASYQSDRSTFHSVEEQQVGLALDIGRHWCDQVKKEDQEATSPRLSRELLDEKEPEVLQDSLDRFYSTPFEYLELPDLCQPYRSDFYSLQEQHLGLALDLDRMKKDQEEEEDQGPPCPRLSRELPEVVEPEDLQDSLDRWYSTPFSYPELPDSCQPYGSCFYSLEEEHVGFSLDVDEIEKYQEGEEDQKPPCPRLNEVLMEAEEPEVLQDSLDRCYSTTSTYFQLHASFQQYRSAFYSFEEQDVSLALDVDNRFFTLTVIRHHLAFQMGVIFPH
inactive: SARS-CoV-2 E 0.0426 | SARS-CoV-2 M 0.0482 | SARS-CoV-2 N 0.067 | SARS-CoV-2 NSP1 = -0.019 | SARS-CoV-2 NSP10 = 0.00243 | SARS-CoV-2 NSP12 = -0.0214 | SARS-CoV-2 NSP13 = -0.0158 | SARS-CoV-2 NSP15 = 0.00138 | SARS-CoV-2 NSP16 = 0.0283 | SARS-CoV-2 NSP2 = -0.105 | SARS-CoV-2 NSP4 = 0.0677 | SARS-CoV-2 NSP5 = 0.0338 | SARS-CoV-2 NSP6 = 0.0118 | SARS-CoV-2 NSP7 = -0.0305 | SARS-CoV-2 NSP8 = 0.0661 | SARS-CoV-2 NSP9 = 0.0888 | SARS-CoV-2 ORF10 = -0.103 | SARS-CoV-2 ORF3A 0.0188 | SARS-CoV-2 ORF3B 0.0221 | SARS-CoV-2 ORF6 = 0.00135 | SARS-CoV-2 ORF7A -0.0212 | SARS-CoV-2 ORF7B 0.0446 | SARS-CoV-2 ORF8 = -0.00358 | SARS-CoV-2 ORF9B -0.0343 | [1] -0.0333 | SARS-CoV-2 S 0.0347

B2: NDUFAF1, Q9Y375 (protein)
chain: MALVHKLLRGTYFLRKFSKPTSALYPFLGIRFAEYSSSLQKPVASPGKASSQRKTEGDLQGDHQKEVALDITSSEEKPDVSFDKAIRDEAIYHFRLLKDEIVDHWRGPEGHPLHEVLLEQAKVVWQFRGKEDLDKWTVTSDKTIGGRSEVFLKMGKNNQSALLYGTLSSEAPQDGESTRSGYCAMISRIPRGAFERKMSYDWSQFNTLYLRVRGDGRPWMVNIKEDTDFFQRTNQMYSYFMFTRGGPYWQEVKIPFSKFFFSNRGRIRDVQHELPLDKISSIGFTLADKVDGPFFLEIDFIGVFTDPAHTEEFAYENSPELNPRLFK
inactive: SARS-CoV-2 E 0.045 | SARS-CoV-2 M 0.0255 | SARS-CoV-2 N -0.00247 | SARS-CoV-2 NSP1 = -0.0959 | SARS-CoV-2 NSP10 = 0.00455 | SARS-CoV-2 NSP12 = -0.0769 | SARS-CoV-2 NSP13 = 0.0373 | SARS-CoV-2 NSP15 = -0.0319 | SARS-CoV-2 NSP16 = 0.0459 | SARS-CoV-2 NSP2 = -0.0772 | SARS-CoV-2 NSP4 = -0.0465 | SARS-CoV-2 NSP5 = 0.0199 | SARS-CoV-2 NSP6 = -0.187 | SARS-CoV-2 NSP7 = -0.0071 | SARS-CoV-2 NSP8 = -0.00767 | SARS-CoV-2 NSP9 = -0.155 | SARS-CoV-2 ORF10 = -0.0268 | SARS-CoV-2 ORF3A 0.174 | SARS-CoV-2 ORF3B -0.0113 | SARS-CoV-2 ORF6 = 0.0323 | SARS-CoV-2 ORF7A -0.0733 | SARS-CoV-2 ORF7B 0.0384 | SARS-CoV-2 ORF8 = 0.0451 | SARS-CoV-2 ORF9B -0.0467 | [1] 0.0671 | SARS-CoV-2 S -0.0426

B3: PPM1B, O75688 (protein)
chain: MGAFLDKPKTEKHNAHGAGNGLRYGLSSMQGWRVEMEDAHTAVVGIPHGLEDWSFFAVYDGHAGSRVANYCSTHLLEHITTNEDFRAAGKSGSALELSVENVKNGIRTGFLKIDEYMRNFSDLRNGMDRSGSTAVGVMISPKHIYFINCGDSRAVLYRNGQVCFSTQDHKPCNPREKERIQNAGGSVMIQRVNGSLAVSRALGDYDYKCVDGKGPTEQLVSPEPEVYEILRAEEDEFIILACDGIWDVMSNEELCEYVKSRLEVSDDLENVCNWVVDTCLHKGSRDNMSIVLVCFSNAPKVSDEAVKKDSELDKHLESRVEEIMEKSGEEGMPDLAHVMRILSAENIPNLPPGGGLAGKRNVIEAVYSRLNPHRESDGASDEAEESGSQGKLVEALRQMRINHRGNYRQLLEEMLTSYRLAKVEGEESPAEPAATATSSNSDAGNPVTMQESHTESESGLAELDSSNEDAGTKMSGEKI
inactive: SARS-CoV-2 E 0.133 | SARS-CoV-2 M 0.101 | SARS-CoV-2 NSP10 = 0.0577 | SARS-CoV-2 NSP12 = 0.0874 | SARS-CoV-2 NSP13 = 0.0406 | SARS-CoV-2 NSP14 = 0.129 | SARS-CoV-2 NSP15 = 0.00511 | SARS-CoV-2 NSP16 = 0.00855 | SARS-CoV-2 NSP2 = -0.0431 | SARS-CoV-2 NSP4 = 0.0972 | SARS-CoV-2 NSP5 = -0.0118 | SARS-CoV-2 NSP6 = 0.00602 | SARS-CoV-2 NSP7 = 0.0177 | SARS-CoV-2 NSP8 = 0.0122 | SARS-CoV-2 NSP9 = 0.0221 | SARS-CoV-2 ORF10 = -0.0427 | SARS-CoV-2 ORF3A -0.00657 | SARS-CoV-2 ORF3B 0.00785 | SARS-CoV-2 ORF6 = 0.0138 | SARS-CoV-2 ORF7A -0.0125 | SARS-CoV-2 ORF7B -0.00404 | SARS-CoV-2 ORF8 = 0.0275 | SARS-CoV-2 ORF9B 0.0708 | [1] 0.0232 | SARS-CoV-2 S -0.0447

B4: MLLT11, Q13015 (protein)
chain: MRDPVSSQYSSFLFWRMPIPELDLSELEGLGLSDTATYKVKDSSVGKMIGQATAADQEKNPEGDGLLEYSTFNFWRAPIASIHSFELDLL
inactive: SARS-CoV-2 E 0.0387 | SARS-CoV-2 M -0.0318 | SARS-CoV-2 NSP1 = 0.00996 | SARS-CoV-2 NSP10 = -0.00237 | SARS-CoV-2 NSP12 = 0.0725 | SARS-CoV-2 NSP13 = 0.035 | SARS-CoV-2 NSP14 = 0.11 | SARS-CoV-2 NSP15 = 0.0396 | SARS-CoV-2 NSP16 = 0.0577 | SARS-CoV-2 NSP2 = -0.15 | SARS-CoV-2 NSP4 = 0.00177 | SARS-CoV-2 NSP5 = -0.00897 | SARS-CoV-2 NSP6 = -0.00789 | SARS-CoV-2 NSP7 = 0.0119 | SARS-CoV-2 NSP8 = -0.0316 | SARS-CoV-2 NSP9 = 0.0145 | SARS-CoV-2 ORF10 = -0.073 | SARS-CoV-2 ORF3A -0.0604 | SARS-CoV-2 ORF3B -0.0237 | SARS-CoV-2 ORF6 = 0.0227 | SARS-CoV-2 ORF7A 0.0413 | SARS-CoV-2 ORF7B 0.00621 | SARS-CoV-2 ORF8 = 0.055 | SARS-CoV-2 ORF9B 0.0452 | [1] 0.0112 | SARS-CoV-2 S -0.0614
